Counter-ions that a name gives are not always drawn. Like-named read-outs stand apart in the source and are kept apart here.
Columns and labels:
human NTCP [1] = target: T1, human NTCP (Homo sapiens, UniProt Q14973); experiment: Screening taurocholate uptake assay (96-well, [14C]taurocholate, 10 µM drug); conditions: for remaining activity at 10 µM: 10 min, read-out: %NTCP activity
T1 sequence (Q14973 1-349): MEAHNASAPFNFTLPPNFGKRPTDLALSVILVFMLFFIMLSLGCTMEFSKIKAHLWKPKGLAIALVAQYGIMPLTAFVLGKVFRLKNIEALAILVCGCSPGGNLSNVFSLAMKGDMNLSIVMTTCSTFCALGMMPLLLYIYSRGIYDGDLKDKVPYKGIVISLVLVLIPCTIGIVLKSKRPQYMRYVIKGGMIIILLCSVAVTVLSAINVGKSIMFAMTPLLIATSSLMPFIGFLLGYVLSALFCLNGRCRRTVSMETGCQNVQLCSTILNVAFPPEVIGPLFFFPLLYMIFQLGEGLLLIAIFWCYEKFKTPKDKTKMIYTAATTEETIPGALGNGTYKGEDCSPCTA

human NTCP [2] = target: T1, human NTCP; experiment: Screening fluorescent competitive Myrcludex B-FITC binding assay (96-well, 10 µM drug); conditions: for remaining activity at 10 µM: 0.5 h
[3] = Prestwick library screen, Myrcludex B-FITC binding, 10 µM drug
[4] = screen, 10 µM drug, [14C]taurocholate uptake
[5] = screen, 10 µM drug, Myrcludex B-FITC binding
[6] = read-out: %NTCP binding, Prestwick library screen, 10 µM drug, Myrcludex B-FITC binding

SMILES | remaining activity at 10 µM (human NTCP [1]) [%] | remaining activity at 10 µM (human NTCP [2]; read-out: %NTCP binding) [%] | further results
C[C@H]1O[C@@H](O[C@H]2[C@@H](O)C[C@H](O[C@H]3[C@@H](O)C[C@H](O[C@H]4CC[C@@]5(C)[C@H](CC[C@@H]6[C@@H]5C[C@@H](O)[C@]5(C)[C@@H](C7=CC(=O)OC7)CC[C@]65O)C4)O[C@@H]3C)O[C@@H]2C)C[C@H](O)[C@@H]1O [Digoxin] | 37 | – | remaining activity at 10 µM (human NTCP [2]; read-out: %NTCP binding, screen, 10 µM drug, Myrcludex B-FITC binding): 92.3%
COc1ccc(C(=O)NCc2cccnc2)cc1C(=O)NCc1cccnc1.O [Picotamide monohydrate] | – | – | %NTCP activity (human NTCP [1]; Prestwick library screen, [14C]taurocholate uptake, 10 µM drug): 66.447%; %NTCP binding (human NTCP [2]; [3]): 89.8526%
NC[C@@H]1O[C@H](O[C@H]2[C@@H](O)[C@H](O[C@@H]3[C@@H](O)[C@H](N)C[C@H](N)[C@H]3O[C@H]3O[C@H](CN)[C@@H](O)[C@H](O)[C@H]3N)O[C@@H]2CO)[C@H](N)[C@@H](O)[C@@H]1O.O=S(=O)(O)O [Neomycin sulfate] | – | – | %NTCP activity (human NTCP [1]; Prestwick library screen, 10 µM drug, [14C]taurocholate uptake): 107.88%; %NTCP binding (human NTCP [2]; Prestwick library screen, 10 µM drug, Myrcludex B-FITC binding): 84.9905%
NCCCNCCSP(=O)(O)O [Amifostine] | 60.7 | 67.1 | –
COC(=O)Nc1nc2ccc([S+]([O-])c3ccccc3)cc2[nH]1 (centres unmarked) [Oxfendazol] | 90.2 | 117 | –
Cc1cccc(N(C)C(=S)Oc2ccc3ccccc3c2)c1 [Tolnaftate] | 136 | 106 | –
c1ccc(CNc2ncnc3[nH]cnc23)cc1 [Aminopurine, 6-benzyl] | – | – | %NTCP activity (human NTCP [1]; [4]): 126.176%; %NTCP binding (human NTCP [2]; [5]): 57.1397%
CN(C(=O)C(Cl)Cl)c1ccc(OC(=O)c2ccco2)cc1 [Diloxanide furoate] | 74.3 | 126 | –
CN[C@@H]1C[C@@H](c2ccc(Cl)c(Cl)c2)c2ccccc21 [Indatraline hydrochloride] | 47.4 | – | remaining activity at 10 µM (human NTCP [2]; read-out: %NTCP binding, Prestwick library screen, Myrcludex B-FITC binding, 10 µM drug): 98.7%
CCOc1ccc(Cc2nccc3cc(OCC)c(OCC)cc23)cc1OCC [Ethaverine hydrochloride] | 103 | 118 | –
O=C(O)CNC(=O)C(CS)Cc1ccccc1 (centres unmarked) [Thiorphan] | 119 | 83.5 | –
CCN(CC)C(C)C(=O)c1ccccc1 (centres unmarked) [Amfepramone hydrochloride] | 77.3 | – | remaining activity at 10 µM (human NTCP [2]; [6]): 101%
Nc1ccc(S(=O)(=O)Nc2nccs2)cc1 [Sulfathiazole] | 65.1 | 111 | –
CN1CCC2(C)c3cc(O)ccc3N(C)C12.O=C(O)/C=C/C(=O)O (single isomer, unassigned; (-)) [(-)-Eseroline fumarate salt] | – | – | %NTCP activity (human NTCP [1]): 43.2314%; %NTCP binding (human NTCP [2]; [3]): 91.3948%
CCOC(=O)[C@H](CCc1ccccc1)N[C@H]1CCc2ccccc2N(CC(=O)O)C1=O [Benazepril HCl] | 141 | 86.5 | –
Nc1nc(=O)c2nc(CNc3ccc(C(=O)N[C@@H](CCC(=O)O)C(=O)O)cc3)cnc2[nH]1 [Folic acid] | 115 | 86.3 | –
CC(=O)OCC(=O)[C@H]1CC[C@H]2[C@@H]3CC[C@H]4C[C@H](O)CC[C@]4(C)[C@H]3C(=O)C[C@]12C [Alfadolone acetate] | 101 | – | remaining activity at 10 µM (human NTCP [2]; [6]): 116%
CC(C(=O)O)c1ccc2c(c1)Cc1cccnc1O2 (centres unmarked) [Pranoprofen] | 96.9 | 84.5 | –
COc1ccccc1N1CCN(CC(O)COc2cccc3ccccc23)CC1.Cl.Cl (centres unmarked) [Naftopidil dihydrochloride] | – | – | %NTCP activity (human NTCP [1]; [4]): 58.9029%; %NTCP binding (human NTCP [2]; [5]): 105.331%
CN(C)[C@@H]1C(O)=C(C(N)=O)C(=O)[C@@]2(O)C(O)=C3C(=O)c4c(O)ccc(Cl)c4[C@@](C)(O)[C@H]3C[C@@H]12 [Chlortetracycline hydrochloride] | 55.3 | 89 | –
COc1ncnc(NS(=O)(=O)c2ccc(N)cc2)c1OC [Sulfadoxine] | 86 | 105 | –
CN(C)CCOC1=Cc2ccccc2Sc2ccc(Cl)cc21 [Zotepine] | 51.5 | 74.3 | –
CC(C)NC[C@@H](O)COc1cccc2ccccc12.Cl [(R)-Propranolol hydrochloride] | – | – | %NTCP activity (human NTCP [1]): 79.9127%; %NTCP binding (human NTCP [2]): 84.3247%
CCC[C@@H]1C[C@@H](C(=O)N[C@@H]([C@H]2O[C@H](SC)[C@H](O)[C@@H](O)[C@H]2O)[C@@H](C)O)N(C)C1 [Lincomycin hydrochloride] | 85.1 | 74.4 | –
Cn1c(=O)c2c(ncn2CCO)n(C)c1=O [Etofylline] | 118 | 77.9 | –
CC(=O)OCC1=C(C(=O)O)N2C(=O)[C@@H](NC(=O)Cc3cccs3)[C@H]2SC1 [Cephalothin sodium salt] | 126 | 76.7 | –

SMILES | remaining activity at 10 µM (human NTCP [1]) [%] | remaining activity at 10 µM (human NTCP [2]; read-out: %NTCP binding) [%] | further results
NCCCC[C@H](N[C@@H](CCc1ccccc1)C(=O)O)C(=O)N1CCC[C@H]1C(=O)O [Lisinopril] | 85.1 | 66.9 | –
CN(C/C=C/C#CC(C)(C)C)Cc1cccc2ccccc12 [Terbinafine] | 111 | 57 | –
CN1C(=O)CCS(=O)(=O)C1c1ccc(Cl)cc1 (centres unmarked) [Chlormezanone] | 65.8 | – | remaining activity at 10 µM (human NTCP [2]; [6]): 66.8%
Cc1ccnc(NS(=O)(=O)c2ccc(N)cc2)n1 [Sulfamerazine] | 124 | 79.2 | –
Cc1ncc(CO)c(CO)c1O [Pyridoxine hydrochloride] | 125 | 86.7 | –
O=C(O)COC(=O)Cc1ccccc1Nc1c(Cl)cccc1Cl [Aceclofenac] | 74.6 | 69.8 | –
Cc1cccc(C)c1NC(=O)C(C)N (centres unmarked) [Tocainide hydrochloride] | 92.7 | 107 | –
CC1CC(OC(=O)C(O)c2ccccc2)CC(C)(C)N1C (centres unmarked) [Eucatropine hydrochloride] | 73 | 91.2 | –
CC(=O)O[C@H]1CC[C@@]2(C)C(=CC[C@@H]3[C@@H]2CC[C@]2(C)C(=O)CC[C@@H]32)C1 [Dehydroisoandosterone 3-acetate] | – | – | %NTCP activity (human NTCP [1]): 52.8978%; %NTCP binding (human NTCP [2]; [5]): 87.5215%
CC(COc1ccccc1)NC(C)C(O)c1ccc(O)cc1 (centres unmarked) [Isoxsuprine hydrochloride] | 103 | 110 | –
CCC(C)n1ncn(-c2ccc(N3CCN(c4ccc(OCC5COC(Cn6cncn6)(c6ccc(Cl)cc6Cl)O5)cc4)CC3)cc2)c1=O (centres unmarked) [Itraconazole] | 115 | 87.4 | –
CN1C(C)(C)CCCC1(C)C [Pempidine tartrate] | 82.4 | 80.7 | –
Cc1nc2ccc(CN(C)c3ccc(C(=O)N[C@@H](CCC(=O)O)C(=O)O)s3)cc2c(=O)[nH]1 [Raltitrexed] | 71.1 | 80 | –
O=C(O)c1ccccc1C(=O)Nc1ccc(S(=O)(=O)Nc2nccs2)cc1 [Phthalylsulfathiazole] | 108 | 89.4 | –
C[C@]12C=CC(=O)C=C1CC[C@@H]1[C@@H]2C(=O)C[C@@]2(C)[C@H]1CC[C@]2(O)C(=O)CO [Prednisone] | 113 | 100 | –
CCCC1C(=O)N2C(N(C)C)=Nc3ccc(C)cc3N2C1=O (centres unmarked) [Azapropazone] | 75.8 | 81.2 | –
O=C(NCC(O)CO)c1c(I)c(C(=O)NCC(O)CO)c(I)c(N(CCO)C(=O)CO)c1I (centres unmarked) [Ioversol] | 122 | 74.7 | –
C[C@@](Cc1ccc(O)c(O)c1)(NN)C(=O)O [Carbidopa] | 130 | 80.1 | –
CCCC(C(=O)OCCN(CC)CC)(c1ccccc1)c1ccccc1 [Proadifen hydrochloride] | 97.1 | 79.5 | –
CN(C)CCC[C@@]1(c2ccc(F)cc2)OCc2cc(C#N)ccc21 [Escitalopram oxalate] | 108 | 78.2 | –
CCCc1cc(C(N)=S)ccn1 [Prothionamide] | 66.1 | 126 | –
[H]/N=C(\N/C(=N/[H])Nc1ccc(Cl)cc1)NC(C)C [Proguanil hydrochloride] | 48.5 | 84.8 | –
CCCc1nn(C)c2c(=O)[nH]c(-c3cc(S(=O)(=O)N4CCN(C)CC4)ccc3OCC)nc12 [Sildenafil] | 134 | 84.4 | –
Cc1cccc(Nc2ccncc2S(=O)(=O)NC(=O)NC(C)C)c1 [Torsemide] | 47 | 84.6 | –
CN(C)CCCN1c2ccccc2CCc2ccc(Cl)cc21 [Clomipramine hydrochloride] | 92.5 | 63.7 | –
NCc1ccccc1CC(=O)N[C@@H]1C(=O)N2C(C(=O)O)=C(CSc3nnnn3CC(=O)O)CS[C@H]12 [Ceforanide] | 66.8 | 60.6 | –

Source: article PMC5681660, “Reduced hepatitis B and D viral entry using clinically applied drugs as novel inhibitors of the bile acid transporter NTCP” (Scientific Reports, 2017)
